# Measured values reported in the supplement of paper PMC10037445.
# Whole data set: some 2,900 compounds, median “NF-kB SEAP reporter activity, fold change vs agonist alone” near 0.99, cut for the highest 2% near 2.6. The list shows a part of the results.
# Key:
# RAW-Dual [1] = assay: NF-kB SEAP reporter activity, fold change vs agonist alone; higher = enhanced NF-kB activity
# Outline: (§1)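 Reporter activity is given as fold change relative to agonist-alone wells. To measure it, 50 nL of library stock was pin-tooled onto RAW-Dual macrophages (50,000 cells/well, DMEM, 384-well plates), a PRR agonist followed 1 h later, and cells stayed at 37 °C, 5% CO2. Twenty hours on, supernatant was assayed for IRF (QuantiLuc luminescence) and NF-κB (QuantiBlue, 620 nm absorbance), and wells under 70% of agonist-control IncuCyte confluency in both mask sets were marked cytotoxic.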
# RAW-Dual [2] = assay: NF-kB SEAP reporter activity, fold change vs agonist alone; cytotoxicity flag (confluency mask): cytotoxic (confluency <70% of control); higher = enhanced NF-kB activity
# Outline: as §1
# RAW-Dual [3] = assay: NF-kB SEAP reporter activity, fold change vs agonist alone; cytotoxicity flag (confluency mask): not cytotoxic; higher = enhanced NF-kB activity
# Outline: as §1
# [4] = library stock concentration (final ~1000-fold dilution): 10 mM water, cytotoxicity flag (confluency mask): not cytotoxic, agonist: Imiquimod (TLR7) […]
# [5] = library stock concentration (final ~1000-fold dilution): 10 mM water, cytotoxicity flag (confluency mask): not cytotoxic, agonist: MPLA (TLR4) […]
# [6] = library stock concentration (final ~1000-fold dilution): 10 mM, cytotoxicity flag (confluency mask): cytotoxic (confluency <70% of control), agonist: Imiquimod (TLR7) […]
# [7] = library stock concentration (final ~1000-fold dilution): 10 mM, cytotoxicity flag (confluency mask): cytotoxic (confluency <70% of control), agonist: MPLA (TLR4) […]
# [8] = agonist: ODN 1826 (TLR9) 0.5 ug/mL
# [9] = agonist: Pam2CSK4 (TLR2/6) 0.1 ug/mL
# [10] = agonist: Pam3CSK4 (TLR2/1) 0.1 ug/mL
# [11] = library stock concentration (final ~1000-fold dilution): 10 mM, cytotoxicity flag (confluency mask): not cytotoxic, agonist: Imiquimod (TLR7) […]
# [12] = library stock concentration (final ~1000-fold dilution): 10 mM, cytotoxicity flag (confluency mask): not cytotoxic, agonist: MPLA (TLR4) […]
# [13] = library stock concentration (final ~1000-fold dilution): 2 mM, cytotoxicity flag (confluency mask): not cytotoxic, agonist: Imiquimod (TLR7) […]
# [14] = library stock concentration (final ~1000-fold dilution): 2 mM, cytotoxicity flag (confluency mask): not cytotoxic, agonist: MPLA (TLR4) […]
compound,measurement,setting,value
CC(=O)NC1C(NC(=N)N)C=C(C(=O)O)OC1C(O)C(O)CO (centres undefined),NF-kB SEAP reporter activity,RAW-Dual [1]; [4],0.917
same,NF-kB SEAP reporter activity,RAW-Dual [1]; [5],1.03
CCC1(O)C(=O)OCc2c1cc1n(c2=O)Cc2cc3c(CN(C)C)c(O)ccc3nc2-1.Cl (centres undefined),NF-kB SEAP reporter activity,RAW-Dual [1]; [6],2.3
same,NF-kB SEAP reporter activity,RAW-Dual [1]; [7],2.16
CCC1(O)C(=O)OCc2c1cc1n(c2=O)Cc2cc3c(CN(C)C)c(O)ccc3nc2-1.Cl (centres undefined) (library stock concentration (final ~1000-fold dilution): 10 mM),NF-kB SEAP reporter activity,RAW-Dual [2]; agonist: LPS (TLR4) 0.1 ug/mL,2.73
same,NF-kB SEAP reporter activity,RAW-Dual [2]; [8],2.71
same,NF-kB SEAP reporter activity,RAW-Dual [2]; [9],0.868
same,NF-kB SEAP reporter activity,RAW-Dual [2]; [10],1.35
C=CCc1ccc(O)c(OC)c1,NF-kB SEAP reporter activity,RAW-Dual [1]; [11],0.972
same,NF-kB SEAP reporter activity,RAW-Dual [1]; [12],1.06
C=CCc1ccc(O)c(OC)c1 (library stock concentration (final ~1000-fold dilution): 10 mM),NF-kB SEAP reporter activity,RAW-Dual [3]; agonist: LPS (TLR4) 0.1 ug/mL,1.17
same,NF-kB SEAP reporter activity,RAW-Dual [3]; [8],0.728
same,NF-kB SEAP reporter activity,RAW-Dual [3]; [9],0.805
same,NF-kB SEAP reporter activity,RAW-Dual [3]; [10],0.816
COCCOc1nc(-c2ccc(Cl)c(Cl)c2)n(-c2ccc(NC(=O)CCl)cc2)n1,NF-kB SEAP reporter activity,RAW-Dual [1]; [6],0.149
same,NF-kB SEAP reporter activity,RAW-Dual [1]; [7],0.267
same,NF-kB SEAP reporter activity,RAW-Dual [1]; [11],0.139
same,NF-kB SEAP reporter activity,RAW-Dual [1]; [12],0.252
COCCOc1nc(-c2ccc(Cl)c(Cl)c2)n(-c2ccc(NC(=O)CCl)cc2)n1 (library stock concentration (final ~1000-fold dilution): 10 mM),NF-kB SEAP reporter activity,RAW-Dual [3]; agonist: LPS (TLR4) 0.1 ug/mL,0.196
same,NF-kB SEAP reporter activity,RAW-Dual [3]; [8],0.18
same,NF-kB SEAP reporter activity,RAW-Dual [3]; [9],0.0849
same,NF-kB SEAP reporter activity,RAW-Dual [3]; [10],0.149
same,NF-kB SEAP reporter activity,RAW-Dual [2]; agonist: LPS (TLR4) 0.1 ug/mL,0.322
same,NF-kB SEAP reporter activity,RAW-Dual [2]; [8],0.201
same,NF-kB SEAP reporter activity,RAW-Dual [2]; [9],0.075
same,NF-kB SEAP reporter activity,RAW-Dual [2]; [10],0.175
Cc1cc(C)c(CN2CCc3c(Cl)cc(-c4c(C)noc4C)c(Cl)c3C2=O)c(=O)[nH]1 (library stock concentration (final ~1000-fold dilution): 10 mM),NF-kB SEAP reporter activity,RAW-Dual [3]; agonist: LPS (TLR4) 0.1 ug/mL,2.16
same,NF-kB SEAP reporter activity,RAW-Dual [3]; [8],1.51
same,NF-kB SEAP reporter activity,RAW-Dual [3]; [9],0.917
same,NF-kB SEAP reporter activity,RAW-Dual [3]; [10],0.98
Cc1cc(C)c(CN2CCc3c(Cl)cc(-c4c(C)noc4C)c(Cl)c3C2=O)c(=O)[nH]1,NF-kB SEAP reporter activity,RAW-Dual [1]; [11],1.24
same,NF-kB SEAP reporter activity,RAW-Dual [1]; [12],1.64
CC(C)(C)CC1NC(C(=O)NC2CCC(O)CC2)C(c2cccc(Cl)c2F)C12C(=O)Nc1cc(Cl)ccc12 (centres undefined) (library stock concentration (final ~1000-fold dilution): 10 mM),NF-kB SEAP reporter activity,RAW-Dual [2]; agonist: LPS (TLR4) 0.1 ug/mL,3.05
same,NF-kB SEAP reporter activity,RAW-Dual [2]; [8],2.82
same,NF-kB SEAP reporter activity,RAW-Dual [2]; [9],0.884
same,NF-kB SEAP reporter activity,RAW-Dual [2]; [10],1.21
CC(C)(C)CC1NC(C(=O)NC2CCC(O)CC2)C(c2cccc(Cl)c2F)C12C(=O)Nc1cc(Cl)ccc12 (centres undefined),NF-kB SEAP reporter activity,RAW-Dual [1]; [6],1.55
same,NF-kB SEAP reporter activity,RAW-Dual [1]; [7],2.25
O=C1NC(=O)C(c2ccccc2[N+](=O)[O-])=C1Nc1ccc(O)c(Cl)c1,NF-kB SEAP reporter activity,RAW-Dual [1]; [11],0.83
same,NF-kB SEAP reporter activity,RAW-Dual [1]; [12],1.19
O=C1NC(=O)C(c2ccccc2[N+](=O)[O-])=C1Nc1ccc(O)c(Cl)c1 (library stock concentration (final ~1000-fold dilution): 10 mM),NF-kB SEAP reporter activity,RAW-Dual [3]; agonist: LPS (TLR4) 0.1 ug/mL,1.16
same,NF-kB SEAP reporter activity,RAW-Dual [3]; [8],1.56
same,NF-kB SEAP reporter activity,RAW-Dual [3]; [9],1.25
same,NF-kB SEAP reporter activity,RAW-Dual [3]; [10],1.77
NC(=O)c1cnc2[nH]ccc2c1NC1C2CC3CC1CC(O)(C3)C2 (centres undefined),NF-kB SEAP reporter activity,RAW-Dual [1]; [11],0.334
same,NF-kB SEAP reporter activity,RAW-Dual [1]; [12],0.347
NC(=O)c1cnc2[nH]ccc2c1NC1C2CC3CC1CC(O)(C3)C2 (centres undefined) (library stock concentration (final ~1000-fold dilution): 10 mM),NF-kB SEAP reporter activity,RAW-Dual [3]; agonist: LPS (TLR4) 0.1 ug/mL,0.305
same,NF-kB SEAP reporter activity,RAW-Dual [3]; [8],0.398
same,NF-kB SEAP reporter activity,RAW-Dual [3]; [9],0.242
same,NF-kB SEAP reporter activity,RAW-Dual [3]; [10],0.31
O=C1NC(=O)/C(=C/c2ccc3nccc(-c4ccncc4)c3c2)S1 (library stock concentration (final ~1000-fold dilution): 2 mM),NF-kB SEAP reporter activity,RAW-Dual [3]; agonist: LPS (TLR4) 0.1 ug/mL,0.993
same,NF-kB SEAP reporter activity,RAW-Dual [3]; [8],0.863
same,NF-kB SEAP reporter activity,RAW-Dual [3]; [9],0.5
same,NF-kB SEAP reporter activity,RAW-Dual [3]; [10],0.581
O=C1NC(=O)/C(=C/c2ccc3nccc(-c4ccncc4)c3c2)S1,NF-kB SEAP reporter activity,RAW-Dual [1]; [13],0.734
same,NF-kB SEAP reporter activity,RAW-Dual [1]; [14],1.12
CCCc1ncc(C[n+]2ccccc2C)c(N)n1 (library stock concentration (final ~1000-fold dilution): 10 mM water),NF-kB SEAP reporter activity,RAW-Dual [3]; agonist: LPS (TLR4) 0.1 ug/mL,1.27
same,NF-kB SEAP reporter activity,RAW-Dual [3]; [8],1.13
same,NF-kB SEAP reporter activity,RAW-Dual [3]; [9],1.26
same,NF-kB SEAP reporter activity,RAW-Dual [3]; [10],1.27
CCCc1ncc(C[n+]2ccccc2C)c(N)n1,NF-kB SEAP reporter activity,RAW-Dual [1]; [4],0.977
same,NF-kB SEAP reporter activity,RAW-Dual [1]; [5],0.961
C=C(CC)C(=O)c1ccc(OCC(=O)O)c(Cl)c1Cl,NF-kB SEAP reporter activity,RAW-Dual [1]; [11],0.993
same,NF-kB SEAP reporter activity,RAW-Dual [1]; [12],0.86
C=C(CC)C(=O)c1ccc(OCC(=O)O)c(Cl)c1Cl (library stock concentration (final ~1000-fold dilution): 10 mM),NF-kB SEAP reporter activity,RAW-Dual [3]; agonist: LPS (TLR4) 0.1 ug/mL,0.518
same,NF-kB SEAP reporter activity,RAW-Dual [3]; [8],0.532
same,NF-kB SEAP reporter activity,RAW-Dual [3]; [9],0.982
same,NF-kB SEAP reporter activity,RAW-Dual [3]; [10],0.696
CCc1c2c(nc3ccc(O)cc13)-c1cc3c(c(=O)n1C2)COC(=O)C3(O)CC (centres undefined),NF-kB SEAP reporter activity,RAW-Dual [1]; [12],1.59
CCc1c2c(nc3ccc(O)cc13)-c1cc3c(c(=O)n1C2)COC(=O)C3(O)CC (centres undefined) (library stock concentration (final ~1000-fold dilution): 10 mM),NF-kB SEAP reporter activity,RAW-Dual [3]; agonist: LPS (TLR4) 0.1 ug/mL,2.16
same,NF-kB SEAP reporter activity,RAW-Dual [3]; [8],1.39
same,NF-kB SEAP reporter activity,RAW-Dual [3]; [9],0.867
same,NF-kB SEAP reporter activity,RAW-Dual [3]; [10],0.98
CCOCCn1c(C2CCN(CCc3ccc(C(C)(C)C(=O)O)cc3)CC2)nc2ccccc21,NF-kB SEAP reporter activity,RAW-Dual [1]; [13],0.779
same,NF-kB SEAP reporter activity,RAW-Dual [1]; [14],1.11
CCOCCn1c(C2CCN(CCc3ccc(C(C)(C)C(=O)O)cc3)CC2)nc2ccccc21 (library stock concentration (final ~1000-fold dilution): 2 mM),NF-kB SEAP reporter activity,RAW-Dual [3]; agonist: LPS (TLR4) 0.1 ug/mL,1.24
same,NF-kB SEAP reporter activity,RAW-Dual [3]; [8],1.08
same,NF-kB SEAP reporter activity,RAW-Dual [3]; [9],1.08
same,NF-kB SEAP reporter activity,RAW-Dual [3]; [10],1.08
